For experiment [1], the target named is T1, IL3Ra protein (TPP-5521, IL3Ra aa20-305, CD123) (Homo sapiens, UniProt P26951).
T1 construct: IL3Ra aa20-305; purchased R&D Systems 203-IL
T1 sequence (P26951 20-305): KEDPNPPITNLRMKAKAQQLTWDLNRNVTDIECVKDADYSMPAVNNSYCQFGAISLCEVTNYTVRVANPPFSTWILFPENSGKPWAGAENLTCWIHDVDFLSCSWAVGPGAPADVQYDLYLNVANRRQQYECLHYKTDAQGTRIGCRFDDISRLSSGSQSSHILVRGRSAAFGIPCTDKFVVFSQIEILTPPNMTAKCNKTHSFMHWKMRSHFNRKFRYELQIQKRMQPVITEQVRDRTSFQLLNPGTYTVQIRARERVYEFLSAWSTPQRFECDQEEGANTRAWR
Put plainly: Binding affinity by surface plasmon resonance (Biacore). Also noted: species or system murine. The following applies: SPR sensorgram behaviour. The procedure: (§1) The antibodies were furthermore characterized by their binding affinity to soluble IL3Ralpha (obtained from R&D Systems) via BIAcore analysis. To determine the cell binding characteristics of the anti-CD123 antibodies, binding was measured by flow cytometry on CD123-positive cancer cell line MOLM-13.
Surface plasmon resonance experiments for quantitative binding analysis were carried out using a Biacore T200 instrument (GE Healthcare Biacore, Inc.). Here the antibodies to be examined were fixed with the aid of an anti-human Fe antibody (“Human Antibody Capture Kit”, BR-1008-39, GE Healthcare Biacore, Inc.) amine-coupled to the sensor chip surface. Amine coupling was performed according to the manufacturer's instructions using 1-ethyl-3-(3-dimethylaminopropyl)carbodiimide hydrochloride (EDC), N-hydroxysuccinimide (NHS) and ethanolamine HCl pH 8.5 (“Amine Coupling Kit” BR-1000-50, GE Healthcare Biacore, Inc.). For the analyses, Series S sensor chips CM5 (GE Healthcare Biacore, Inc.) were used with the mobile buffer HBS-EP+(10 mM HEPES pH 7.4, 150 mM NaCl, 3 mM EDTA, 0.05% Surfactant P20). All experimental steps were carried out at 25° C. After fixation of the anti-CD123 antibodies to be examined, injections of the extracellular domain of IL3Rα (analyte, R&D Systems) at concentrations of 100 nM were carried out, and after each antigen injection the sensor surface was regenerated with glycine HCl pH 2.0. Prior to another analyte injection, antibodies were in each case fixed as above, under identical conditions. For all measurements, an upstream flow cell only containing immobilized amine-coupled anti-human Fe antibody was used as reference cell. Evaluation of the sensorgrams obtained was, after double referencing (subtraction of the reference flow cell signal and a buffer injection), carried out by a global fit based on a 1:1 Langmuir binding model with the aid of the Biacore T200 evaluation software (GE Healthcare Biacore, Inc.).

In experiment [2] the test system is MOLM-13 cancer cell line (CD123-positive). The experiment in a line: Flow cytometry (FACS) binding of anti-CD123 antibodies to cells. Also noted: species or system human. The following applies: for MOLM-13 EC50 [nM]: FACS binding, start 10 μg/ml, 1:5 dilution. The procedure:
as §1
Binding of the anti-CD123 antibodies was examined by flow cytometry using human haematological cell line MOLM-13. To this end, the cells (5×10^5 cells/well) were incubated in FACS buffer (PBS without Ca/Mg, 3% FCS, Biochrom) with 10 μg/ml primary antibody solution (start concentration) on ice for 30-45 min protected from light. A dose activity curve (1:5 dilution) was plotted. After the incubation, 200 μl of ice-cold FACS buffer were added using a pipette, and the cell suspension was centrifuged at 4° C. 400 g for 4 min. The cell pellet was washed with 300 μl of ice-cold FACS buffer and the pellet obtained was then resuspended in 100 μl FACS buffer and incubated again with secondary antibody (monoclonal anti-kappa light chains-FITC antibody, Sigma, No. SAB4700605) in a 1:10 dilution on ice for 30 min. The cells were then washed with ice-cold FACS buffer and adjusted to a cell concentration of 0.5×10^6 cell/ml prior to flow cytometry using a Guava flow cytometer (Millipore). Propidium iodide (final concentration 1 μg/ml) was used for live staining. The results were shown as EC50 values determined based on the dose response curve and efficacy compared to maximal binding.

In the next experiment the test system is CD123-positive cells. Put plainly: Co-localisation of the internalised CD123 antibody in the lysosome. It is filed as cell-based. The following applies: CypHer5E-labelled antibody 20 μg/ml, 6 h, 37° C., lysosome stain. On the procedure: The toxic active compound of the antibody drug conjugates is released in the lysosome, owing to the linker selected. The transport of the antibody to this organelle is therefore crucial. By co-localisation of the antibody with marker proteins specific for the lysosome (e.g. surface protein or small GTPasen), it is possible to identify antibodies having a suitable profile. To this end, the CD123-positive cells (5×10^4/well) in 100 μl of medium were initially sown into a 96-MTP (Greiner bio-one, CELLSTAR, 650 180, U-bottom). After addition of the CypHer5E-labelled anti-CD123 antibody (final concentration 20 μg/ml), the batches were incubated in duplicate at 37° C. for 6 h. In each case 30 min prior to the end of the incubation time, a lysosome-specific live dye was added to the samples. The lysomes were stained using the CytoPainter LysoGreen indicator reagent (final concentration 1:2000; abeam, ab176826). After incubation, 200 μl of ice-cold FACS buffer (DULBECCO'S PBS, Sigma-Aldrich, No. D8537+3% FBS heat inactivated FBS, Gibco, No. 10500-064) were pipetted into the batch and the cell suspension was centrifuged at 400×g and 4° C. for 5 min. The pellet was then resuspended in 300 μl ice-cold FACS buffer and centrifuged again (4 min, 400×g at 4° C.). […] Co-localisation was evaluated using the specific co-localisation software IDEAS Application v6.1.

Experimental findings from patent US20230399411A1, “SPECIFIC ANTIBODY-DRUG-CONJUGATES (ADCS) WITH KSP INHIBITORS AND ANTI-CD123-ANTIBODIES” (Bayer Pharma Aktiengesellschaft, priority 2016, published 2023) are described below.

B1: TPP-9075: germlining variant of TPP-8988 (12F1 campaign) (antibody)
heavy: EVQLLESGGGLVQPGGSLRLSCAVSDYSITSGYYSNWIRQAPGKKLEWMGYISYDGSNNYNPSLKNGRITISRDTSKNTFYLQMNSLRAEDTAVYYCARGEGFYFDSWGQGTLVTVSS[human IgG1 constant region cut from this listing]
light: EIVLTQSPGTLSLSPGERATLSCKSSQSLFFGSTQKNYLAWYQQKPGQAPRLLIYWASTRESGIPDRFSGSGSGTDFTLTISRLEPEDFAVYYCQQYYNYPWTFGQGTKLEIKRTVAAPSVFIFPPSDEQLKSGTASVVCLLNNFYPREAKVQWKVDNALQSGNSQESVTEQDSKDSTYSLSSTLTLSKADYEKHKVYACEVTHQGLSSPVTKSFNRGEC
Take B1: the Multiphasic behaviour result in experiment [1] was “low expression and/or undesirable multiphasic behavior”.

B2: TPP-9129: germlining variant of TPP-8988 (12F1 campaign) (antibody)
heavy: EVQLLESGGGLVQPGGSLRLSCAVSDYSITSGYYWNWIRQAPGKKLEWMGYISYDGSNNYNPSLKNGRITISRDTSKNTFYLQMNSLRAEDTAVYYCARGEGFYFDSWGQGTLVTVSS[human IgG1 constant region cut from this listing]
light: EIVLTQSPGTLSLSPGERATLSCRASQSVSSSYLAWYQQKPGQAPRLLIYWASTRESGIPDRFSGSGSGTDFTLTISRLEPEDFAVYYCQQYYNYPWTFGQGTKLEIKRTVAAPSVFIFPPSDEQLKSGTASVVCLLNNFYPREAKVQWKVDNALQSGNSQESVTEQDSKDSTYSLSSTLTLSKADYEKHKVYACEVTHQGLSSPVTKSFNRGEC
As to B2, the “MOLM-13 EC50 [nM]” value in experiment [2] is reported as “No binding”. The Multiphasic behaviour entry in experiment [1] was “low expression and/or undesirable multiphasic behavior”.

B3: TPP-9104: germlining variant of TPP-8988 (12F1 campaign) (antibody)
heavy: EVQLLESGGGLVQPGGSLRLSCAVSDYSITSNYYWNWIRQAPGKKLEWMGYISYDGSNNYNPSLKNGRITISRDTSKNTFYLQMNSLRAEDTAVYYCARGEGFYFDSWGQGTLVTVSS[human IgG1 constant region cut from this listing]
light: EIVLTQSPGTLSLSPGERATLSCKSSQSLFFGSTQKNYLAWYQQKPGQAPRLLIYWASTRESGIPDRFSGSGSGTDFTLTISRLEPEDFAVYYCQQYYNYPWTFGQGTKLEIKRTVAAPSVFIFPPSDEQLKSGTASVVCLLNNFYPREAKVQWKVDNALQSGNSQESVTEQDSKDSTYSLSSTLTLSKADYEKHKVYACEVTHQGLSSPVTKSFNRGEC
Take B3: the Multiphasic behaviour entry in experiment [1] was “low expression and/or undesirable multiphasic behavior”.

B4: TPP-9130: germlining variant of TPP-8988 (12F1 campaign) (antibody)
heavy: EVQLLESGGGLVQPGGSLRLSCAVSDYSITSGYYWNWIRQAPGKKLEWMGYISYDGSNNYNPSLKNGRITISRDTSKNTFYLQMNSLRAEDTAVYYCARGEGFYFDSWGQGTLVTVSS[human IgG1 constant region cut from this listing]
light: EIVLTQSPGTLSLSPGERATLSCKSSQSLFFGSTQKNYLAWYQQKPGQAPRLLIYGASSRATGIPDRFSGSGSGTDFTLTISRLEPEDFAVYYCQQYYNYPWTFGQGTKLEIKRTVAAPSVFIFPPSDEQLKSGTASVVCLLNNFYPREAKVQWKVDNALQSGNSQESVTEQDSKDSTYSLSSTLTLSKADYEKHKVYACEVTHQGLSSPVTKSFNRGEC
Regarding B4, the Multiphasic behaviour entry in experiment [1] is “low expression and/or undesirable multiphasic behavior”.

B5: TPP-9078: germlining variant of TPP-8988 (12F1 campaign) (antibody)
heavy: EVQLLESGGGLVQPGGSLRLSCAVSDYSITSGYYWNWIRQAPGKKLEWVGYISYDGSNNYNPSLKNGRITISRDTSKNTFYLQMNSLRAEDTAVYYCARGEGFYFDSWGQGTLVTVSS[human IgG1 constant region cut from this listing]
light: EIVLTQSPGTLSLSPGERATLSCKSSQSLFFGSTQKNYLAWYQQKPGQAPRLLIYWASTRESGIPDRFSGSGSGTDFTLTISRLEPEDFAVYYCQQYYNYPWTFGQGTKLEIKRTVAAPSVFIFPPSDEQLKSGTASVVCLLNNFYPREAKVQWKVDNALQSGNSQESVTEQDSKDSTYSLSSTLTLSKADYEKHKVYACEVTHQGLSSPVTKSFNRGEC
Take B5: the “MOLM-13 EC50 [nM]” value in experiment [2] was “No binding”. In addition, the Multiphasic behaviour entry in experiment [1] is recorded as “low expression and/or undesirable multiphasic behavior”.

B6: TPP-8988: humanized and germlined variant of anti-CD123 antibody 12F1; heavy chain SEQ ID NO: 139, light chain 140 (antibody)
heavy: EVQLLESGGGLVQPGGSLRLSCAVSDYSITSGYYWNWIRQAPGKKLEWMGYISYDGSNNYNPSLKNGRITISRDTSKNTFYLQMNSLRAEDTAVYYCARGEGFYFDSWGQGTLVTVSS[human IgG1 constant region cut from this listing]
light: EIVLTQSPGTLSLSPGERATLSCKSSQSLFFGSTQKNYLAWYQQKPGQAPRLLIYWASTRESGIPDRFSGSGSGTDFTLTISRLEPEDFAVYYCQQYYNYPWTFGQGTKLEIKRTVAAPSVFIFPPSDEQLKSGTASVVCLLNNFYPREAKVQWKVDNALQSGNSQESVTEQDSKDSTYSLSSTLTLSKADYEKHKVYACEVTHQGLSSPVTKSFNRGEC
modifications: Antibody Sequence
For B6, the “Co-localisation [%]” value with CD123-positive cells was 41.0%. In addition, the “FACS binding, in words” value in experiment [2] is “significant improved binding behaviour”. Besides, in experiment [1], the Multiphasic behaviour result is recorded as “No”.

B7: TPP-6013: chimeric anti-CD123 antibody, chimeric variant of 12F1 (antibody)
heavy: QVQLQESGPGLVKPSQSLSLTCSVTDYSITSGYYWNWIRQFPGNKLEWMGYISYDGSNNYNPSLKNRISITRDTSKNQFFLKLSSVTTEDTATYYCSRGEGFYFDSWGQGTTLTVSS[human IgG1 constant region cut from this listing]
light: DIMMSQSPSSLAVSVGEKFTMTCKSSQSLFFGSTQKNYLAWYQQKPGQSPKLLIYWASTRESGVPDRFTGSGSGTDFTLAISSVMPEDLAVYYCQQYYNYPWTFGGGTKLEIKRTVAAPSVFIFPPSDEQLKSGTASVVCLLNNFYPREAKVQWKVDNALQSGNSQESVTEQDSKDSTYSLSSTLTLSKADYEKHKVYACEVTHQGLSSPVTKSFNRGEC
Turning to B7, the “Co-localisation [%]” value with CD123-positive cells came to 43.5%. Further, in experiment [1], the Multiphasic behaviour entry is “No”.
